# Source: article PMC9911399, “Two distinct binding modes provide the RNA-binding protein RbFox with extraordinary sequence specificity”
# Numbering of substitutions follows the chain as printed; changes in the protein carry UniProt numbers. Some of the results follow.
# T1: RBFOX1 RRM RbFoxmut (Fox-RRM*) (Homo sapiens, UniProt Q9NWB1 109-208, R118D;E147R;N151S;E152T)
# T1 sequence: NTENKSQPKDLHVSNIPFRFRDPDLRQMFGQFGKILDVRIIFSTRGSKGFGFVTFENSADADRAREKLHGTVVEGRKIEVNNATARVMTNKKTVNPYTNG
# B1: GAUGCCC (DNA:RNA)
# RNA: GGGAGACCGGAAUUCAGAUUGUCCGAUGCCCUUAAAUCCCGUCGUAGCCACCA
# DNA 1: CAATCTGAATTCCGGTCTCCC
# DNA 2: TGGTGGCTACGACGGGATT
# B2: UCUUUAA (DNA:RNA)
# RNA: B1 RNA with G25U, A26C, G28U, C29U, C30A, C31A
# DNA 1: CAATCTGAATTCCGGTCTCCC
# DNA 2: TGGTGGCTACGACGGGATT
# B3: UUACGUC (DNA:RNA)
# RNA: B1 RNA with G25U, A26U, U27A, G28C, C29G, C30U
# DNA 1: CAATCTGAATTCCGGTCTCCC
# DNA 2: TGGTGGCTACGACGGGATT
# B4: GACCACU (DNA:RNA)
# RNA: B1 RNA with U27C, G28C, C29A, C31U
# DNA 1: CAATCTGAATTCCGGTCTCCC
# DNA 2: TGGTGGCTACGACGGGATT
# B5: GGUUGUG (DNA:RNA)
# RNA: B1 RNA with A26G, G28U, C29G, C30U, C31G
# DNA 1: CAATCTGAATTCCGGTCTCCC
# DNA 2: TGGTGGCTACGACGGGATT
# B6: ACCCCCU (DNA:RNA)
# RNA: B1 RNA with G25A, A26C, U27C, G28C, C31U
# DNA 1: CAATCTGAATTCCGGTCTCCC
# DNA 2: TGGTGGCTACGACGGGATT
# B7: GCUCAGA (DNA:RNA)
# RNA: B1 RNA with A26C, G28C, C29A, C30G, C31A
# DNA 1: CAATCTGAATTCCGGTCTCCC
# DNA 2: TGGTGGCTACGACGGGATT
# B8: AAAAAAG (DNA:RNA)
# RNA: B1 RNA with G25A, U27A, G28A, C29A, C30A, C31G
# DNA 1: CAATCTGAATTCCGGTCTCCC
# DNA 2: TGGTGGCTACGACGGGATT
# B9: GCCACGA (DNA:RNA)
# RNA: B1 RNA with A26C, U27C, G28A, C30G, C31A
# DNA 1: CAATCTGAATTCCGGTCTCCC
# DNA 2: TGGTGGCTACGACGGGATT
# B10: GAGUCAC (DNA:RNA)
# RNA: B1 RNA with U27G, G28U, C30A
# DNA 1: CAATCTGAATTCCGGTCTCCC
# DNA 2: TGGTGGCTACGACGGGATT
# B11: AACAGCC (DNA:RNA)
# RNA: B1 RNA with G25A, U27C, G28A, C29G
# DNA 1: CAATCTGAATTCCGGTCTCCC
# DNA 2: TGGTGGCTACGACGGGATT
# B12: UUGUCCG (DNA:RNA)
# RNA: B1 RNA with G25U, A26U, U27G, G28U, C31G
# DNA 1: CAATCTGAATTCCGGTCTCCC
# DNA 2: TGGTGGCTACGACGGGATT
# B13: CAUCUGC (DNA:RNA)
# RNA: B1 RNA with G25C, G28C, C29U, C30G
# DNA 1: CAATCTGAATTCCGGTCTCCC
# DNA 2: TGGTGGCTACGACGGGATT
# B14: CUGCAGG (DNA:RNA)
# RNA: GGGAGACCGGAAUUCAGAUUGUCCCUGCAGGUUAAAUCCCGUCGUAGCCACCA
# DNA 1: CAATCTGAATTCCGGTCTCCC
# DNA 2: TGGTGGCTACGACGGGATT
# B15: GCUACAU (DNA:RNA)
# RNA: B1 RNA with A26C, G28A, C30A, C31U
# DNA 1: CAATCTGAATTCCGGTCTCCC
# DNA 2: TGGTGGCTACGACGGGATT
# B16: AGUAAAC (DNA:RNA)
# RNA: B1 RNA with G25A, A26G, G28A, C29A, C30A
# DNA 1: CAATCTGAATTCCGGTCTCCC
# DNA 2: TGGTGGCTACGACGGGATT
# B17: CGAGGUG (DNA:RNA)
# RNA: B14 RNA with U26G, G27A, C28G, A29G, G30U
# DNA 1: CAATCTGAATTCCGGTCTCCC
# DNA 2: TGGTGGCTACGACGGGATT
# B18: GAUUGGG (DNA:RNA)
# RNA: B1 RNA with G28U, C29G, C30G, C31G
# DNA 1: CAATCTGAATTCCGGTCTCCC
# DNA 2: TGGTGGCTACGACGGGATT
# B19: AAUAAGU (DNA:RNA)
# RNA: B14 RNA with C25A, U26A, G27U, C28A, G31U
# DNA 1: CAATCTGAATTCCGGTCTCCC
# DNA 2: TGGTGGCTACGACGGGATT
# B20: UGCUUAC (DNA:RNA)
# RNA: B1 RNA with G25U, A26G, U27C, G28U, C29U, C30A
# DNA 1: CAATCTGAATTCCGGTCTCCC
# DNA 2: TGGTGGCTACGACGGGATT
# Molecular target: T1, RBFOX1 RRM RbFoxmut (Fox-RRM*)
# Test: EMSA; HiTS-Eq, 1 nM pool, 10 min; buffer printed only for the single-RNA assays: 10 mM Tris pH 7.5, 150 mM NaCl, 3.4 mM EDTA, 0.001% NP-40, 30 C
# Details: tags: His6 N-terminal (pET28a); label: 5' 32P
# In short: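 Purified RbFox RRM (wild type or mutant) was equilibrated for 10 min in 50 µL with 1 nM of a 5′-radiolabelled pool of RNA with 7 randomized nucleotides, its flanks annealed to DNA oligonucleotides, across increasing protein concentrations. Free RNA was separated by 8% native PAGE, excised, reverse-transcribed, PCR-barcoded and sequenced on an Illumina HiSeq 2500. Relative association constants came from read-count changes of each variant against the control reaction, normalised to the cognate motif.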
row,Binder,binding signal
1,B1,0.0444 KA relative to UGCAUGU
2,B2,0.113 KA relative to UGCAUGU
3,B3,0.0615 KA relative to UGCAUGU
4,B4,0.0643 KA relative to UGCAUGU
5,B5,0.296 KA relative to UGCAUGU
6,B6,0.0632 KA relative to UGCAUGU
7,B7,0.0849 KA relative to UGCAUGU
8,B8,0.127 KA relative to UGCAUGU
9,B9,0.0882 KA relative to UGCAUGU
10,B10,0.0599 KA relative to UGCAUGU
11,B11,0.0644 KA relative to UGCAUGU
12,B12,0.188 KA relative to UGCAUGU
13,B13,0.072 KA relative to UGCAUGU
14,B14,0.0971 KA relative to UGCAUGU
15,B15,0.103 KA relative to UGCAUGU
16,B16,0.0523 KA relative to UGCAUGU
17,B17,0.142 KA relative to UGCAUGU
18,B18,0.102 KA relative to UGCAUGU
19,B19,0.0909 KA relative to UGCAUGU
20,B20,0.119 KA relative to UGCAUGU
